# Experimental data taken from the supplement of paper PMC4604168 (melanoma cell lines).
# Some of the results follow. Single values are uncertain, as repeats are few or missing.
# Test system: SkMel30
# Experiment: cell count relative to DMSO control; melanoma cells; higher = more viable cells
# Conditions: library dose: standard library concentration; 72 h
# 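Also: cells treated in 1,536-well plates, then fixed and DAPI-stained, with nuclei counted from automated high-throughput microscope images.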
row,SMILES,cell count
1,"CC1(C)CCC(c2ccc(Cl)cc2)=C(CN2CCN(c3ccc(C(=O)NS(=O)(=O)c4ccc(N[C@H](CCN5CCOCC5)CSc5ccccc5)c(S(=O)(=O)C(F)(F)F)c4)cc3)CC2)C1 + O=c1cc(-c2cccc3c2Sc2ccccc2S3)oc(N2CCOCC2)c1 [KU55933] (first compound 2 µM, partner dose 5 µM)",79.3%
2,"O=C(/C=C/c1cccnc1)NCCCCC1CCN(C(=O)c2ccccc2)CC1 + c1cc(-c2cnn3cc(-c4ccc(OCCN5CCCCC5)cc4)cnc23)ccn1 [Dorsomorphin] (first compound 0.05 µM, partner dose 2 µM)",92%
3,"Cc1ccc(Nc2nccc(N(C)c3ccc4c(C)n(C)nc4c3)n2)cc1S(N)(=O)=O [Pazopanib] + O=C(O)C(=O)Nc1sc2c(c1C(=O)O)CCNC2 [TCS401] (first compound 2 µM, partner dose 8.33333 µM)",112%
4,"Cc1ccc(Nc2nccc(N(C)c3ccc4c(C)n(C)nc4c3)n2)cc1S(N)(=O)=O [Pazopanib] + COc1ccc(-c2ccc3c(N4CCOCC4)nc(N4C[C@@H](C)O[C@@H](C)C4)nc3n2)cc1CO [KU0063794] (first compound 2 µM, partner dose 0.1 µM)",84.9%
5,"Cc1ccc(Nc2nccc(N(C)c3ccc4c(C)n(C)nc4c3)n2)cc1S(N)(=O)=O [Pazopanib] + Cc1cc([N+](=O)[O-])ccc1NS(=O)(=O)c1cc(Cl)ccc1Cl [FH535] (first compound 2 µM, partner dose 5 µM)",75.9%
6,"O=C(/C=C/c1cccnc1)NCCCCC1CCN(C(=O)c2ccccc2)CC1 + Oc1nc(-c2ccc(C(F)(F)F)cc2)nc2c1CSCC2 [XAV939] (first compound 0.05 µM, partner dose 10 µM)",108%
7,"CC1(C)CCC(c2ccc(Cl)cc2)=C(CN2CCN(c3ccc(C(=O)NS(=O)(=O)c4ccc(N[C@H](CCN5CCOCC5)CSc5ccccc5)c(S(=O)(=O)C(F)(F)F)c4)cc3)CC2)C1 + COc1ccc(COc2ccc(Cc3cnc(N)nc3N)cc2OC)cc1 [GW2580] (first compound 2 µM, partner dose 5 µM)",56.3%
8,"O=C(/C=C/c1cccnc1)NCCCCC1CCN(C(=O)c2ccccc2)CC1 + NCC(=O)Nc1ccc(-n2nc(C(F)(F)F)cc2-c2ccc3c(ccc4ccccc43)c2)cc1 [OSU03012] (first compound 0.05 µM, partner dose 5 µM)",47.5%
9,"CC1(C)CCC(c2ccc(Cl)cc2)=C(CN2CCN(c3ccc(C(=O)NS(=O)(=O)c4ccc(N[C@H](CCN5CCOCC5)CSc5ccccc5)c(S(=O)(=O)C(F)(F)F)c4)cc3)CC2)C1 + O=C(Nc1cccc(Cl)c1)Nc1ncc(CCNc2ncnc3ccsc23)s1 [SNS314] (first compound 2 µM, partner dose 0.004 µM)",60%
10,"CC1(C)CCC(c2ccc(Cl)cc2)=C(CN2CCN(c3ccc(C(=O)NS(=O)(=O)c4ccc(N[C@H](CCN5CCOCC5)CSc5ccccc5)c(S(=O)(=O)C(F)(F)F)c4)cc3)CC2)C1 + Oc1nc(-c2ccc(C(F)(F)F)cc2)nc2c1CSCC2 [XAV939] (first compound 2 µM, partner dose 10 µM)",91.1%
11,"O=C(/C=C/c1cccnc1)NCCCCC1CCN(C(=O)c2ccccc2)CC1 + O=C(O)C(=O)Nc1sc2c(c1C(=O)O)CCNC2 [TCS401] (first compound 0.05 µM, partner dose 8.33333 µM)",135%
12,"O=C(/C=C/c1cccnc1)NCCCCC1CCN(C(=O)c2ccccc2)CC1 + O=C(Nc1ccccc1)c1cc([N+](=O)[O-])ccc1Cl [GW9662] (first compound 0.05 µM, partner dose 10 µM)",104%
13,"CC1(C)CCC(c2ccc(Cl)cc2)=C(CN2CCN(c3ccc(C(=O)NS(=O)(=O)c4ccc(N[C@H](CCN5CCOCC5)CSc5ccccc5)c(S(=O)(=O)C(F)(F)F)c4)cc3)CC2)C1 + N#Cc1c(O)c2c(-c3ccc(-c4ccccc4O)cc3)csc2[nH]c1=O [A769662] (first compound 2 µM, partner dose 10 µM)",68.4%
14,"CC1(C)CCC(c2ccc(Cl)cc2)=C(CN2CCN(c3ccc(C(=O)NS(=O)(=O)c4ccc(N[C@H](CCN5CCOCC5)CSc5ccccc5)c(S(=O)(=O)C(F)(F)F)c4)cc3)CC2)C1 + COc1cc2ncnc(Nc3ccc(Oc4ccccc4)cc3)c2cc1OC [SrcI1] (first compound 2 µM, partner dose 10 µM)",67.5%
15,"O=C(/C=C/c1cccnc1)NCCCCC1CCN(C(=O)c2ccccc2)CC1 + N#Cc1c(O)c2c(-c3ccc(-c4ccccc4O)cc3)csc2[nH]c1=O [A769662] (first compound 0.05 µM, partner dose 10 µM)",95.6%
16,"CC1(C)CCC(c2ccc(Cl)cc2)=C(CN2CCN(c3ccc(C(=O)NS(=O)(=O)c4ccc(N[C@H](CCN5CCOCC5)CSc5ccccc5)c(S(=O)(=O)C(F)(F)F)c4)cc3)CC2)C1 + CCCCCCCCc1ccc(CCC(N)(CO)CO)cc1 [fingolimod] (first compound 2 µM, partner dose 10 µM)",5.17%
17,"CC1(C)CCC(c2ccc(Cl)cc2)=C(CN2CCN(c3ccc(C(=O)NS(=O)(=O)c4ccc(N[C@H](CCN5CCOCC5)CSc5ccccc5)c(S(=O)(=O)C(F)(F)F)c4)cc3)CC2)C1 + O=S(=O)(c1ccccc1)N(CC(F)(F)F)c1ccc(C(O)(C(F)(F)F)C(F)(F)F)cc1 [T0901317] (first compound 2 µM, partner dose 7 µM)",55.8%
18,"O=C(/C=C/c1cccnc1)NCCCCC1CCN(C(=O)c2ccccc2)CC1 + CC(C)CCN1c2nc(Nc3cc(F)c(O)c(F)c3)ncc2N(C)C(=O)C1C [BID1870] (first compound 0.05 µM, partner dose 1 µM)",85.7%
19,"O=C(/C=C/c1cccnc1)NCCCCC1CCN(C(=O)c2ccccc2)CC1 + Cc1cc([N+](=O)[O-])ccc1NS(=O)(=O)c1cc(Cl)ccc1Cl [FH535] (first compound 0.05 µM, partner dose 5 µM)",116%
20,"Cc1ccc(Nc2nccc(N(C)c3ccc4c(C)n(C)nc4c3)n2)cc1S(N)(=O)=O [Pazopanib] + O=C(Nc1ccccc1)c1cc([N+](=O)[O-])ccc1Cl [GW9662] (first compound 2 µM, partner dose 10 µM)",90.8%
21,"Cc1ccc(Nc2nccc(N(C)c3ccc4c(C)n(C)nc4c3)n2)cc1S(N)(=O)=O [Pazopanib] + COc1ccc(COc2ccc(Cc3cnc(N)nc3N)cc2OC)cc1 [GW2580] (first compound 2 µM, partner dose 5 µM)",83.7%
